According to the supplement of paper PMC12645437, “Orthogonal IMiD-Degron Pairs Induce Selective Protein Degradation in Cells” (ACS Chemical Biology, 2025):
The list shows a part of the results.

Biological target: no compound (DMSO)
Assay: log2 fold change of degron read counts, EGFP-low vs EGFP+ sorted cells; higher = lower degron-EGFP level without compound (poor expression or instability)
Conditions: compound: DMSO control; 18 h
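Further: jurkat cells carrying a lentiviral library of mutant zinc finger degrons fused to EGFP plus mCherry, mCherry+ cells FACS sorted, degron abundance counted by next-generation sequencing.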

Q: Which “log2 fold change of degron read counts” value does the source give for FTCNQCGHHFTQKGNLLRHIKL here?
A: -0.798

Q: With FSCEQCGAEFTQKGNLLRHIKL as the sequence, how does the “log2 fold change of degron read counts” value read?
A: -2.37

Q: For FWCNICGAMFTQKGNLLRHIKL, which “log2 fold change of degron read counts” value is on record?
A: 0.792

Q: For FQCDVCGAVFTQKGNLLRHIKL, which “log2 fold change of degron read counts” value is on record?
A: -1.47

Q: For FRCNQCGRMFTQKGNLLRHIKL, which “log2 fold change of degron read counts” value is on record?
A: 0.331

Q: How did the “log2 fold change of degron read counts” value turn out when FHCPICGHEFTQKGNLLRHIKL was run?
A: -0.0759

Q: Which “log2 fold change of degron read counts” value does the source give for FLCPICGHVFTQKGNLLRHIKL here?
A: -0.0505

Q: How did the “log2 fold change of degron read counts” value turn out when FSCDVCGAKFTQKGNLLRHIKL was run?
A: -1.5

Q: For FYCPICGHPFTQKGNLLRHIKL, which “log2 fold change of degron read counts” value is on record?
A: 0.569

Q: FRCPICGRYFTQKGNLLRHIKL was tested. Which “log2 fold change of degron read counts” value did it give?
A: 0.643

Q: How did the “log2 fold change of degron read counts” value turn out when FLCNQCGHHFTQKGNLLRHIKL was run?
A: -0.202

Q: LECPICGFRCTQKGNLLRHIKL was tested. Which “log2 fold change of degron read counts” value did it give?
A: 0.513

Q: For FVCNVCGAGFTQKGNLLRHIKL, which “log2 fold change of degron read counts” value is on record?
A: -0.846

Q: FDCEQCGALFTQKGNLLRHIKL was tested. Which “log2 fold change of degron read counts” value did it give?
A: -0.475

Q: With FTCEVCGAAFTQKGNLLRHIKL as the sequence, how does the “log2 fold change of degron read counts” value read?
A: -1.67

Q: FGCPICGAHFTQKGNLLRHIKL was tested. Which “log2 fold change of degron read counts” value did it give?
A: 0.115

Q: Which “log2 fold change of degron read counts” value does the source give for FHCNICGAQFTQKGNLLRHIKL here?
A: -0.578

Q: Which “log2 fold change of degron read counts” value does the source give for FVCEICGRWFTQKGNLLRHIKL here?
A: -0.157

Q: FKCEQCGARFTQKGNLLRHIKL was tested. Which “log2 fold change of degron read counts” value did it give?
A: -1.19

Q: FWCDVCGAEFTQKGNLLRHIKL was tested. Which “log2 fold change of degron read counts” value did it give?
A: -1.63

Q: FKCEICGAKFTQKGNLLRHIKL was tested. Which “log2 fold change of degron read counts” value did it give?
A: -1.67

Q: FFCPICGHQFTQKGNLLRHIKL was tested. Which “log2 fold change of degron read counts” value did it give?
A: -0.126

Q: How did the “log2 fold change of degron read counts” value turn out when FRCEVCGAGFTQKGNLLRHIKL was run?
A: -1.83

Q: With FDCDVCGAMFTQKGNLLRHIKL as the sequence, how does the “log2 fold change of degron read counts” value read?
A: -0.772

Q: How did the “log2 fold change of degron read counts” value turn out when FWCNQCGHEFTQKGNLLRHIKL was run?
A: 0.318

Q: For FKCDICGASFTQKGNLLRHIKL, which “log2 fold change of degron read counts” value is on record?
A: -1.56

Q: FYCNQCGHFFTQKGNLLRHIKL was tested. Which “log2 fold change of degron read counts” value did it give?
A: 1.29

Q: For FLCEVCGACFTQKGNLLRHIKL, which “log2 fold change of degron read counts” value is on record?
A: -1.48

Q: With FRCNQCGHNFTQKGNLLRHIKL as the sequence, how does the “log2 fold change of degron read counts” value read?
A: 0.496

Q: Which “log2 fold change of degron read counts” value does the source give for FNCDVCGAIFTQKGNLLRHIKL here?
A: -0.793

Q: Which “log2 fold change of degron read counts” value does the source give for FQCPVCGARFTQKGNLLRHIKL here?
A: -0.562

Q: Which “log2 fold change of degron read counts” value does the source give for FHCSVCGHDFTQKGNLLRHIKL here?
A: -0.762
